# The supplement of paper PMC8728848
# The list shows a part of the results.
# Columns and labels:
# Assay in all cases: glycan array binding signal (z-score within array); higher = stronger binding
# Details in all cases: glycan notation: IUPAC condensed, linker removed
# [1] = biological target: Neu5Ac(a2-3)Gal6S(b1-4)[Fuc(a1-3)]GlcNAc
# Procedure, shortened: (§1)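 Glycan array data were curated from 3228 arrays in the Consortium for Functional Glycomics database and kept only where the protein sequence was available. Glycan names were converted to IUPAC-condensed notation, and columns mapping to the same glycan were averaged. The binding signal is a within-array Z-score, averaged across arrays of the same protein sequence at different concentrations or buffers and across linkers. Negative Z-scores can be read as non-binding.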
# Neu5Ac(a2-3)GalNAc = biological target: Neu5Ac(a2-3)GalNAc
# Procedure, shortened: as §1
# [2] = biological target: Neu5Ac(a2-3)GalNAc(b1-4)GlcNAc
# Procedure, shortened: as §1
# [3] = biological target: Neu5Ac(a2-3)[GalNAc(b1-4)]Gal(b1-4)Glc
# Procedure, shortened: as §1
# [4] = biological target: Neu5Ac(a2-3)[GalNAc(b1-4)]Gal(b1-4)GlcNAc
# Procedure, shortened: as §1
# [5] = biological target: Neu5Ac(a2-3)[GalNAc(b1-4)]Gal(b1-4)GlcNAc(b1-3)GalNAc
# Procedure, shortened: as §1
# [6] = biological target: Neu5Ac(a2-3)[Neu5Ac(a2-6)]GalNAc
# Procedure, shortened: as §1
# Neu5Ac(a2-6)Gal = biological target: Neu5Ac(a2-6)Gal
# Procedure, shortened: as §1
# Neu5Ac(a2-6)Gal(b1-4)Glc = biological target: Neu5Ac(a2-6)Gal(b1-4)Glc
# Procedure, shortened: as §1
# [7] = biological target: Neu5Ac(a2-6)Gal(b1-4)GlcNAc
# Procedure, shortened: as §1
# [8] = biological target: Neu5Ac(a2-6)Gal(b1-4)GlcNAc(b1-2)Man(a1-3)Man(b1-4)GlcNAc(b1-4)GlcNAc
# Procedure, shortened: as §1
# [9] = biological target: Neu5Ac(a2-6)Gal(b1-4)GlcNAc(b1-2)Man(a1-3)[Gal(b1-4)GlcNAc(b1-2)Man(a1-6)]Man(b1-4)GlcNAc(b1-4)GlcNAc
# Procedure, shortened: as §1
# [10] = biological target: Neu5Ac(a2-6)Gal(b1-4)GlcNAc(b1-2)Man(a1-3)[GlcNAc(b1-2)Man(a1-6)]Man(b1-4)GlcNAc(b1-4)GlcNAc
# Procedure, shortened: as §1
# [11] = biological target: Neu5Ac(a2-6)Gal(b1-4)GlcNAc(b1-2)Man(a1-3)[GlcNAc(b1-2)Man(b1-4)GlcNAc(b1-2)Man(a1-6)]Man(b1-4)GlcNAc(b1-4)GlcNAc
# Procedure, shortened: as §1
# [12] = biological target: Neu5Ac(a2-6)Gal(b1-4)GlcNAc(b1-2)Man(a1-3)[Man(a1-6)]Man(b1-4)GlcNAc(b1-4)GlcNAc
# Procedure, shortened: as §1
# [13] = biological target: Neu5Ac(a2-6)Gal(b1-4)GlcNAc(b1-2)Man(a1-3)[Neu5Ac(a2-6)Gal(b1-4)GlcNAc(b1-2)Man(a1-6)]Man(b1-4)GlcNAc(b1-4)GlcNAc
# Procedure, shortened: as §1
# [14] = biological target: Neu5Ac(a2-6)Gal(b1-4)GlcNAc(b1-2)Man(a1-6)Man(b1-4)GlcNAc(b1-4)GlcNAc
# Procedure, shortened: as §1
# [15] = biological target: Neu5Ac(a2-6)Gal(b1-4)GlcNAc(b1-2)Man(a1-6)[Gal(b1-4)GlcNAc(b1-2)Man(a1-3)]Man(b1-4)GlcNAc(b1-4)GlcNAc
# Procedure, shortened: as §1
# [16] = biological target: Neu5Ac(a2-6)Gal(b1-4)GlcNAc(b1-2)Man(a1-6)[GlcNAc(b1-2)Man(a1-3)]Man(b1-4)GlcNAc(b1-4)GlcNAc
# Procedure, shortened: as §1
# [17] = biological target: Neu5Ac(a2-6)Gal(b1-4)GlcNAc(b1-2)Man(a1-6)[Man(a1-3)]Man(b1-4)GlcNAc(b1-4)GlcNAc
# Procedure, shortened: as §1
# [18] = biological target: Neu5Ac(a2-6)Gal(b1-4)GlcNAc(b1-3)Gal(b1-3)GlcNAc
# Procedure, shortened: as §1
# [19] = biological target: Neu5Ac(a2-6)Gal(b1-4)GlcNAc(b1-3)Gal(b1-4)GlcNAc
# Procedure, shortened: as §1
# [20] = biological target: Neu5Ac(a2-6)Gal(b1-4)GlcNAc(b1-3)Gal(b1-4)GlcNAc(b1-3)Gal(b1-4)GlcNAc
# Procedure, shortened: as §1
# [21] = biological target: Neu5Ac(a2-6)Gal(b1-4)GlcNAc(b1-3)Gal(b1-4)[Fuc(a1-3)]GlcNAc(b1-3)Gal(b1-4)[Fuc(a1-3)]GlcNAc
# Procedure, shortened: as §1
# [22] = biological target: Neu5Ac(a2-6)Gal(b1-4)GlcNAc(b1-3)GalNAc
# Procedure, shortened: as §1
# [23] = biological target: Neu5Ac(a2-6)Gal(b1-4)GlcNAc6S
# Procedure, shortened: as §1
# Neu5Ac(a2-6)GalNAc = biological target: Neu5Ac(a2-6)GalNAc
# Procedure, shortened: as §1
# [24] = biological target: Neu5Ac(a2-6)GalNAc(b1-4)GlcNAc
# Procedure, shortened: as §1
# [25] = biological target: Neu5Ac(a2-6)GlcNAc(b1-4)GlcNAc
# Procedure, shortened: as §1
# [26] = biological target: Neu5Ac(a2-6)GlcNAc(b1-4)GlcNAc(b1-4)GlcNAc
# Procedure, shortened: as §1
# Neu5Ac(a2-8)Neu5Ac = biological target: Neu5Ac(a2-8)Neu5Ac
# Procedure, shortened: as §1
# [27] = biological target: Neu5Ac(a2-8)Neu5Ac(a2-3)Gal(b1-4)Glc
# Procedure, shortened: as §1
# [28] = biological target: Neu5Ac(a2-8)Neu5Ac(a2-3)[GalNAc(b1-4)]Gal(b1-4)Glc
# Procedure, shortened: as §1
# [29] = biological target: Neu5Ac(a2-8)Neu5Ac(a2-8)Neu5Ac
# Procedure, shortened: as §1
# [30] = biological target: Neu5Ac(a2-8)Neu5Ac(a2-8)Neu5Ac(a2-3)Gal(b1-4)Glc
# Procedure, shortened: as §1
# [31] = biological target: Neu5Ac(a2-8)Neu5Ac(a2-8)Neu5Ac(a2-3)[GalNAc(b1-4)]Gal(b1-4)Glc
# Procedure, shortened: as §1
# [32] = biological target: Neu5Ac(a2-8)Neu5Ac(a2-8)Neu5Ac(a2-8)Neu5Ac(a2-3)[GalNAc(b1-4)]Gal(b1-4)Glc
# Procedure, shortened: as §1
# [33] = biological target: Neu5Ac(b2-6)Gal(b1-4)GlcNAc
# Procedure, shortened: as §1
# Neu5Ac(b2-6)GalNAc = biological target: Neu5Ac(b2-6)GalNAc
# Procedure, shortened: as §1
# [34] = biological target: Neu5Ac9Ac(a2-3)Gal(b1-3)GlcNAc
# Procedure, shortened: as §1
# [35] = biological target: Neu5Ac9Ac(a2-3)Gal(b1-4)GlcNAc
# Procedure, shortened: as §1
# [36] = biological target: Neu5Ac9Ac(a2-6)Gal(b1-4)GlcNAc
# Procedure, shortened: as §1
# [37] = biological target: Neu5Gc(a2-3)Gal(b1-3)GlcNAc
# Procedure, shortened: as §1
# [38] = biological target: Neu5Gc(a2-3)Gal(b1-3)[Fuc(a1-4)]GlcNAc
# Procedure, shortened: as §1
# Neu5Gc(a2-3)Gal(b1-4)Glc = biological target: Neu5Gc(a2-3)Gal(b1-4)Glc
# Procedure, shortened: as §1
# [39] = biological target: Neu5Gc(a2-3)Gal(b1-4)GlcNAc
# Procedure, shortened: as §1
# [40] = biological target: Neu5Gc(a2-3)Gal(b1-4)[Fuc(a1-3)]GlcNAc
# Procedure, shortened: as §1
# [41] = biological target: Neu5Gc(a2-6)Gal(b1-4)GlcNAc
# Procedure, shortened: as §1
# Neu5Gc(a2-6)GalNAc = biological target: Neu5Gc(a2-6)GalNAc
# Procedure, shortened: as §1
# [42] = biological target: Neu5Gc(b2-6)Gal(b1-4)GlcNAc
# Procedure, shortened: as §1
binder,measurement,setting,value
"Gal 3 (Homo sapiens), P17931 (protein) MADNFSLHDALSGSGNPNPQGWPGAWGNQPAGAGGYPGASYPGAYPGQAPPGAYPGQAPPGAYHGAPGAYPGAPAPGVYPGPPSGPGAYPSSGQPSAPGAYPATGPYGAPAGPLIVPYNLPLPGGVVPRMLITILGTVKPNANILDFQRGNDVAFHFNPRFNENNRRVIVCNTKLDNNWGREERQSVFPFESGKPFKIQVLVEPDHFKVAVNDAHLLQYNHRVKKLNEISKLGISGDIDLTSASYTMI",glycan array binding signal (z-score),[1],-0.389
same,glycan array binding signal (z-score),Neu5Ac(a2-3)GalNAc,-0.392
same,glycan array binding signal (z-score),[2],-0.392
same,glycan array binding signal (z-score),[3],-0.391
same,glycan array binding signal (z-score),[4],-0.386
same,glycan array binding signal (z-score),[5],-0.384
same,glycan array binding signal (z-score),[6],-0.392
same,glycan array binding signal (z-score),Neu5Ac(a2-6)Gal,-0.393
same,glycan array binding signal (z-score),Neu5Ac(a2-6)Gal(b1-4)Glc,-0.388
same,glycan array binding signal (z-score),[7],-0.39
same,glycan array binding signal (z-score),[8],-0.392
same,glycan array binding signal (z-score),[9],-0.383
same,glycan array binding signal (z-score),[10],-0.39
same,glycan array binding signal (z-score),[11],-0.25
same,glycan array binding signal (z-score),[12],-0.39
same,glycan array binding signal (z-score),[13],-0.378
same,glycan array binding signal (z-score),[14],-0.392
same,glycan array binding signal (z-score),[15],-0.391
same,glycan array binding signal (z-score),[16],-0.392
same,glycan array binding signal (z-score),[17],-0.388
same,glycan array binding signal (z-score),[18],1.95
same,glycan array binding signal (z-score),[19],2.28
same,glycan array binding signal (z-score),[20],2.97
same,glycan array binding signal (z-score),[21],-0.386
same,glycan array binding signal (z-score),[22],-0.388
same,glycan array binding signal (z-score),[23],-0.381
same,glycan array binding signal (z-score),Neu5Ac(a2-6)GalNAc,-0.349
same,glycan array binding signal (z-score),[24],-0.392
same,glycan array binding signal (z-score),[25],-0.394
same,glycan array binding signal (z-score),[26],-0.391
same,glycan array binding signal (z-score),Neu5Ac(a2-8)Neu5Ac,-0.38
same,glycan array binding signal (z-score),[27],-0.36
same,glycan array binding signal (z-score),[28],-0.381
same,glycan array binding signal (z-score),[29],-0.383
same,glycan array binding signal (z-score),[30],-0.383
same,glycan array binding signal (z-score),[31],-0.377
same,glycan array binding signal (z-score),[32],-0.389
same,glycan array binding signal (z-score),[33],-0.382
same,glycan array binding signal (z-score),Neu5Ac(b2-6)GalNAc,-0.388
same,glycan array binding signal (z-score),[34],-0.387
same,glycan array binding signal (z-score),[35],-0.393
same,glycan array binding signal (z-score),[36],-0.393
same,glycan array binding signal (z-score),[37],-0.363
same,glycan array binding signal (z-score),[38],-0.391
same,glycan array binding signal (z-score),Neu5Gc(a2-3)Gal(b1-4)Glc,-0.382
same,glycan array binding signal (z-score),[39],-0.387
same,glycan array binding signal (z-score),[40],-0.368
same,glycan array binding signal (z-score),[41],-0.392
same,glycan array binding signal (z-score),Neu5Gc(a2-6)GalNAc,-0.392
same,glycan array binding signal (z-score),[42],-0.385
